# Measurements taken from the supplement of paper PMC8728848.
# This is one part of the list.
# B1: OrfX (Escherichia coli), Q9X4B6_ECOLX (protein)
# chain: MIKIARIAVTLGLLSSLGAQAYAAGLVVNDNDLRNDLAWLSDRGVIHLSLSTWPLSQEEIARALKKAKPSYSSEQVVLARINQRLSALKADFRVTGYTSTDQPGTPQGFGQTQPADNSLGLAFNNSGEWWDVHLQGNVEGGERISNGSRFNANGAYGAVKFWNQWLSFGQVPQWWGPGYEGSLIRGDAMRPMTGFLMQRAEQAAPETWWLRWVGPWQYQISASQMNQYTAVPHAKIIGGRFTFTPFQSLELGASRIMQWGGEGRPQSFSSFWDGFTGHDNTGTDNEPGNQLAGFDFKFKLEPTLGWPVSFYGQMVGEDESGYLPSANMFLGGVEGHHGWGKDTVNWYVEAHDTRTNMSRTNYSYTHHIYKDGYYQQGYPLGDAMGGDGQLIAGKVELITEDNQRWSTRLVYAKVNPENQSINKAFPHADTLKGLQLGWSGDVYQSVRLNTSLWYTNANNSDSDDVGASAGIEIPFSL
# Experiments:
# Experiment in all cases: glycan array binding signal (z-score within array); higher = stronger binding
# Details in all cases: glycan notation: IUPAC condensed, linker removed
# [1] = target: Man(a1-3)[Man(a1-6)]Man(a1-6)[Man(a1-3)]Man
# Procedure, shortened: (§1)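 Glycan array binding is given as a within-array Z-score, which can be read as non-binding when negative. The arrays, 3228 of them, came from the Consortium for Functional Glycomics database and were retained only where the protein sequence was available. Z-scores were averaged across arrays of the same protein sequence at different concentrations or buffers and across linkers.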
# [2] = target: Man(a1-3)[Man(a1-6)]Man(a1-6)[Man(a1-3)]Man(b1-4)GlcNAc(b1-4)GlcNAc
# Procedure, shortened: as §1
# [3] = target: Man(a1-3)[Man(a1-6)]Man(b1-4)GlcNAc(b1-4)GlcNAc
# Procedure, shortened: as §1
# [4] = target: Man(a1-3)[Man(a1-6)]Man(b1-4)GlcNAc(b1-4)[Fuc(a1-6)]GlcNAc
# Procedure, shortened: as §1
# [5] = target: Man(a1-6)Man
# Procedure, shortened: as §1
# [6] = target: Man(b1-4)GlcNAc
# Procedure, shortened: as §1
# [7] = target: Neu5Ac(a2-3)Gal
# Procedure, shortened: as §1
# [8] = target: Neu5Ac(a2-3)Gal(b1-3)GalNAc
# Procedure, shortened: as §1
# [9] = target: Neu5Ac(a2-3)Gal(b1-3)GalNAc(b1-3)Gal(a1-4)Gal(b1-4)Glc
# Procedure, shortened: as §1
# [10] = target: Neu5Ac(a2-3)Gal(b1-3)GalNAc(b1-4)[Neu5Ac(a2-3)]Gal(b1-4)Glc
# Procedure, shortened: as §1
# [11] = target: Neu5Ac(a2-3)Gal(b1-3)GalNAc(b1-4)[Neu5Ac(a2-8)Neu5Ac(a2-3)]Gal(b1-4)Glc
# Procedure, shortened: as §1
# [12] = target: Neu5Ac(a2-3)Gal(b1-3)GalNAc6S
# Procedure, shortened: as §1
# [13] = target: Neu5Ac(a2-3)Gal(b1-3)GlcNAc
# Procedure, shortened: as §1
# [14] = target: Neu5Ac(a2-3)Gal(b1-3)GlcNAc(b1-2)Man(a1-3)[GlcNAc(b1-4)][Neu5Ac(a2-3)Gal(b1-3)GlcNAc(b1-2)Man(a1-6)]Man(b1-4)GlcNAc(b1-4)GlcNAc
# Procedure, shortened: as §1
# [15] = target: Neu5Ac(a2-3)Gal(b1-3)GlcNAc(b1-3)Gal(b1-3)GlcNAc
# Procedure, shortened: as §1
# [16] = target: Neu5Ac(a2-3)Gal(b1-3)GlcNAc(b1-3)Gal(b1-4)GlcNAc
# Procedure, shortened: as §1
# [17] = target: Neu5Ac(a2-3)Gal(b1-3)GlcNAc(b1-3)GalNAc
# Procedure, shortened: as §1
# [18] = target: Neu5Ac(a2-3)Gal(b1-3)GlcNAc(b1-6)GalNAc
# Procedure, shortened: as §1
# [19] = target: Neu5Ac(a2-3)Gal(b1-3)GlcNAc6S
# Procedure, shortened: as §1
# [20] = target: Neu5Ac(a2-3)Gal(b1-3)[Fuc(a1-4)]GlcNAc
# Procedure, shortened: as §1
# [21] = target: Neu5Ac(a2-3)Gal(b1-3)[Fuc(a1-4)]GlcNAc(b1-3)Gal(b1-3)[Fuc(a1-4)]GlcNAc
# Procedure, shortened: as §1
# [22] = target: Neu5Ac(a2-3)Gal(b1-3)[Fuc(a1-4)]GlcNAc(b1-3)Gal(b1-4)[Fuc(a1-3)]GlcNAc
# Procedure, shortened: as §1
# [23] = target: Neu5Ac(a2-3)Gal(b1-3)[Neu5Ac(a2-3)Gal(b1-4)]GlcNAc
# Procedure, shortened: as §1
# [24] = target: Neu5Ac(a2-3)Gal(b1-3)[Neu5Ac(a2-6)]GalNAc
# Procedure, shortened: as §1
# [25] = target: Neu5Ac(a2-3)Gal(b1-3)[Neu5Ac(a2-6)]GlcNAc(b1-3)[Fuc(a1-3)[Gal(b1-4)]GlcNAc(b1-6)]Gal(b1-4)Glc
# Procedure, shortened: as §1
# [26] = target: Neu5Ac(a2-3)Gal(b1-4)Glc
# Procedure, shortened: as §1
# [27] = target: Neu5Ac(a2-3)Gal(b1-4)GlcNAc
# Procedure, shortened: as §1
# [28] = target: Neu5Ac(a2-3)Gal(b1-4)GlcNAc(b1-2)Man
# Procedure, shortened: as §1
# [29] = target: Neu5Ac(a2-3)Gal(b1-4)GlcNAc(b1-2)Man(a1-3)[GlcNAc(b1-2)Man(b1-4)GlcNAc(b1-2)Man(a1-6)]Man(b1-4)GlcNAc(b1-4)GlcNAc
# Procedure, shortened: as §1
# [30] = target: Neu5Ac(a2-3)Gal(b1-4)GlcNAc(b1-2)Man(a1-3)[Neu5Ac(a2-3)Gal(b1-4)GlcNAc(b1-2)Man(a1-6)]Man(b1-4)GlcNAc(b1-4)[Fuc(a1-6)]GlcNAc
# Procedure, shortened: as §1
# [31] = target: Neu5Ac(a2-3)Gal(b1-4)GlcNAc(b1-2)Man(a1-3)[Neu5Ac(a2-6)Gal(b1-4)GlcNAc(b1-2)Man(a1-6)]Man(b1-4)GlcNAc(b1-4)GlcNAc
# Procedure, shortened: as §1
# [32] = target: Neu5Ac(a2-3)Gal(b1-4)GlcNAc(b1-2)[Neu5Ac(a2-3)Gal(b1-4)GlcNAc(b1-6)]Man(a1-6)[Neu5Ac(a2-3)Gal(b1-4)GlcNAc(b1-2)Man(a1-3)]Man(b1-4)GlcNAc(b1-4)GlcNAc
# Procedure, shortened: as §1
# [33] = target: Neu5Ac(a2-3)Gal(b1-4)GlcNAc(b1-3)Gal
# Procedure, shortened: as §1
# [34] = target: Neu5Ac(a2-3)Gal(b1-4)GlcNAc(b1-3)Gal(b1-3)GlcNAc
# Procedure, shortened: as §1
# [35] = target: Neu5Ac(a2-3)Gal(b1-4)GlcNAc(b1-3)Gal(b1-4)GlcNAc
# Procedure, shortened: as §1
# [36] = target: Neu5Ac(a2-3)Gal(b1-4)GlcNAc(b1-3)Gal(b1-4)GlcNAc(b1-3)Gal(b1-4)GlcNAc
# Procedure, shortened: as §1
binder,measurement,setting,value
B1,glycan array binding signal (z-score),[1],-0.155
same,glycan array binding signal (z-score),[2],-0.385
same,glycan array binding signal (z-score),[3],-0.342
same,glycan array binding signal (z-score),[4],0.101
same,glycan array binding signal (z-score),[5],-0.129
same,glycan array binding signal (z-score),[6],-0.181
same,glycan array binding signal (z-score),[7],-0.121
same,glycan array binding signal (z-score),[8],-0.32
same,glycan array binding signal (z-score),[9],-0.332
same,glycan array binding signal (z-score),[10],-0.165
same,glycan array binding signal (z-score),[11],-0.243
same,glycan array binding signal (z-score),[12],-0.193
same,glycan array binding signal (z-score),[13],-0.22
same,glycan array binding signal (z-score),[14],-0.091
same,glycan array binding signal (z-score),[15],-0.096
same,glycan array binding signal (z-score),[16],-0.169
same,glycan array binding signal (z-score),[17],-0.337
same,glycan array binding signal (z-score),[18],-0.074
same,glycan array binding signal (z-score),[19],-0.301
same,glycan array binding signal (z-score),[20],-0.249
same,glycan array binding signal (z-score),[21],0.243
same,glycan array binding signal (z-score),[22],-0.183
same,glycan array binding signal (z-score),[23],-0.106
same,glycan array binding signal (z-score),[24],0.608
same,glycan array binding signal (z-score),[25],-0.357
same,glycan array binding signal (z-score),[26],-0.385
same,glycan array binding signal (z-score),[27],-0.31
same,glycan array binding signal (z-score),[28],7.89
same,glycan array binding signal (z-score),[29],-0.297
same,glycan array binding signal (z-score),[30],-0.317
same,glycan array binding signal (z-score),[31],-0.218
same,glycan array binding signal (z-score),[32],-0.287
same,glycan array binding signal (z-score),[33],-0.223
same,glycan array binding signal (z-score),[34],-0.228
same,glycan array binding signal (z-score),[35],-0.194
same,glycan array binding signal (z-score),[36],-0.227
